Read counts are not given, so values of variants with three or more changes are uncertain.
B1: LINE1-full (parent)
chain: UACGUAGGUGGUUUUCCCCUGAUAGUGCUAAGGGGGCCUGGAAGUUUGGACUGGGCAGAGCUCAACACAGCGUGGCAAAGUGGCUGUGGCUAGACUGCCUCUCUGGAUUCCUCGUCACUCAGCAGGGCAUCUCUGAGAGAAAUGCC

Variants of: B1
Experiment: self-cleavage, relative activity (ratio to wild type); higher = more cleavage; in vitro, sequencing; the parent is a self-cleaving ribozyme

Variant	self-cleavage
A64G A69U U91A	0.06
U9C U87A U102A	0.15
G33A A57U A65U A107C U115C	0.08
U9A U13C A42G A65G	0.16
A42G A79C A138G	1.62
A59G A64G C101A U134A	0.02
U14C A67G A107C U130C A142G	0
A69U G97A U104C U130C	0.03
C84U U134G C146U	0.07
U15C C37U A77U U96A	0.03
U12C A92G A129C A136G	0
U14C G89C U109C	0.06
U12C A121U A124U	1.8
U13C A43G A142G	1.42
U14C G60A U143A	0.04
U39A A50G U62C	0.11
U20A A64C U132C	0.25
C17U G35U A77G A129G U130A	0
U20C A64U A92G U132C	0.15
A59G C118U U130A	0.17
U26A G40U A57G U62C U87C	0.1
U15C A78G G139A	1.25
U9A A24U U45G U46C A78U	1.7
U13C U100A U130C	0.66

Variant	self-cleavage
A94G A121U U134C	0
U9C G72A C98U A124U	0.49
U20C U46G U81A U134C	2.03
G74A U102C G127A U134A A141G	0.52
U14C A65G C103U	0.12
U1C G4U U47C A65G A136U	0
U14C C51A U134G A141G	1.5
U47C C99U A141G	1.21
U13A A22G A117U	0.95
A79G U96A U108C	0.04
U14C U85C C110U	0.35
U14C A43G U47A	0.95
A79G C123A U134C	1.22
U12C A59G U62A G72A	0.09
U87A U115A A142G	0.05
U12C U13C A22C U45A A129G	1.81
A50G G72A A124U A141G	0.97
U14C G126U A136G	1.41
U39C A65G A142G	0
A79G A138U A140G C146U	1.02
A6U U12G U115C	1.02
U73A U102C A142G	0
A22G C63U A64G A140G	0.12
U9C U29C C111U	0.65

Variant	self-cleavage
U20A G75U U81A	0.6
G75A U119C A129U	1.39
U9C U52C U102C	0.68
U1C G8A U73A A129U A140G	1.02
U52C G75C A129U A142G	0
U12G U102C A141G	2.69
U12G U15C A59G U109A A117U U130C	0.49
C18A U87C C146A	0.23
U13G A129U A140U	1.1
U13C A42U U132C	1.33
A57U G139A A140U	0.08
U9A A22G G88A	0.28
U12C U13C U20C U143A	1.08
U9C U47A U62C A64U	0
A59G A77G A117U	0.35
G48U A92G U102A A138G	0.06
A57G U73A U115A	0.34
U12G U13A A24G A57G	0.81
U62C G125U A138G	0.01
A50G U85A A141G	0.1
A6G A22G U119C	1.38
U14C U39A A138G	1.15
U1C C18A U20C	0
A22C A57U G93A	0

Variant	self-cleavage
A22U G89A U119C A124G	0.04
U12A G54A A77G	1.6
U52A G82U U87C U109A U130G	0.19
C37A U47A U96A	0.04
U5C U15C U96C U143C	0.38
G21A U39C U100C	2.07
A22U G83U U112C U130C A140G	1.16
U14A A92G G106U	0.14
U9A U12G U104C	1.08
U14C U104A A129G	1.22
A30U G53A A92G G125U	0.06
U12C A57G U102C	0
U20C A42U A94C A140G	0
U23C C71U U119C G127C A136U	0.8
U1C A2G U13C U29C G97C	0.32
U15A A43G A57G U85C	0
U15A U23C A43G U115A	0.57
U15C G40U G126A	1.45
G25A G105A U119A	1.31
U9A A30G G32C	1.8
A2G A92G A121U U134C	0
U12C U47C A140G	2.8
G75C G93A U119C	0.01
G40U U45C A69G	0.27

Variant	self-cleavage
U1C U13C A42C A78G	0.66
U15C U39C A92G A141G	0
A50U A79U U109G U134C U143G	0.79
A50G U85A U100A A142G	0.03
A129U U130A A136U G139U	0.16
U5C U45C A77G U85C	1.67
U13C U15A U119C A136G	1.21
C66U U115C A136G A142G	0.06
U62C U85A A94G	0
U73A U96C G135A	0.12
A22G G83A U85C U96C C113U G137A	0.04
A78G A92U U104A	0.39
U26A U47A U115C	1
U15C U23A A94G U115A A141G	0
U23A A59G A77U U112C	0
G55A A64U G75C U112C	0.04
A64G A94U U115C	0
U45C C56U U100G A129G	0.05
U1C U26C U87A U108C A138G	0.07
U20C A42G A77G G93A U96A A124U	0.06
A67G A78G A141G	0.38
G11A A78G A121C A129G	0.67
U14A A69G U81A U132A A138G	0.46
U9A U81A A124G	0.85

Variant	self-cleavage
U13G U62G C120A	0
U9C U20G U73C	0.51
A2G C51U U52A A67G A92G G97A A129U	0.2
A79G A136U U143G	1.31
U39C U52A A69G G75A A92G U119C	0
A22U C68U U102C A142G	0.17
U12A A92G U96G A138G	1.15
A78G G93U U104A	0.07
A67U U104A U119A U143C	0.07
U26A G53U G137U	1.06
U52C C61U U62C U132C	0
U12G A67G U96C	0
U14C U39A A140G	1.42
U14C A78G U85C A136G	0
G74A U85C U132C A141G	0.11
C71A U102A U143A	0.51
A43U U102A U104A A129G	2.1
U9C U15C U45C A67U	0
C18A U47C A92G	0.1
G54A A65G A92G A136G	0.13
G35C A50G A64U	0.43
U12C A43G U45C C51A A67G U73A U112C	0.71
U1C U62C C84A	0.09
U15C G36U A64G U73C A77G U134C	0.66

Variant	self-cleavage
U23C U73A U85G U100C C110A U119C	0.37
U14C U39A A50G	0.83
G35A G48U A77G U108C A136G	2.99
A57G A77G G106U G125A U132C	1.29
C56U C98A A136G A140G	0.05
C68A A69G A79G	0.07
A22U C56U A69G	0.12
A65G A69U U132C	0
U14C U39G A141G	1.37
U15A C18U A65U C128U	0.16
A50G U62C U73A A78U	0.02
A2G U46A A69G	0.25
G8A A42G A50G G114C A142G	0.9
U14C G48A A77G	2
C37A A69U G75A U119C	0.04
A6U U14A U109C	0.76
G53A U104A U134C	1.24
U14C A43G A141G	1.29
U20C U52A A69G	1.15
U13C U73A U130C	1.47
U13A U20C U130C	0.74
U14C A22G U47A G60U U62C U96A U119C	0.12
U47A U100C A117G U143C	0.91
